PubChem BioAssay AID1963576 (National Center for Advancing Translational Sciences (NCATS), 2024)
Among all 46,000 compounds or so, about 60 (0.1%) were called active. Roughly 3% stayed inconclusive and do not appear here. Calls follow the shape of the dose curve; as a rule, active = well fitted inhibition curve with a large enough effect; inconclusive = small, poorly fitted or top-dose-only effect; inactive = no such curve, though single readings can be large or run the other way. This is one part of the list.

Experiment: Primary qHTS assay for Inhibitors of ovarian cancer metastasis using an organotypic tumor microenvironment (TME) model. Also: nearly all actives have a fitted effect of over 65% in size.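 As to activity change, negative = inhibition: plate controls were DMSO wells for no effect and tomatine positive control wells for full effect.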
Conditions: SKOV3ip1-GFP adhesion/invasion on 3D omental model, fluorescence; series mostly up to 45.8 µM; activity change, negative = inhibition: at the top concentration
How it was run: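 A 3D layer of primary human omental fibroblasts, mesothelial cells, fibronectin and collagen I, grown 48 hr, received SKOV3ip1-GFP cells in serum-free medium plus compounds at 0.36-46 umol/L. After 2 hr RT and 16 hr 37 C, fixed adherent GFP cells were counted; normalized to DMSO and tomatine.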

outcome, inactive:
CC(=O)c1ccc(NC(=O)c2cccc(NC(=O)N3CCSc4ncccc43)c2)cc1
Cc1c(Cl)cccc1NC(=O)CN1C(=O)c2ccccc2Sc2ncccc21
CCn1c(=O)c2cc(C(=O)NCCc3cccc(C)c3)sc2c2ccccc21
COc1ccc(-n2c(SCc3nc(-c4ccc(C)cc4)no3)nnc2-c2ccncc2)cc1
Cc1cc(-c2ccc(S(=O)(=O)Nc3cccc(C)c3C)s2)on1
COc1ccc(-c2c(C#N)c(SCC(=O)Nc3ccc(C)c(C)c3)nc(C)c2C(=O)Nc2ccc(Cl)cc2)cc1
CCCCSCCCNC(=O)C1CCN(Cc2nc(-c3ccc(CC)cc3)oc2C)CC1
COc1cc(OC)c(NC(=O)NCCn2nnc3cc(S(=O)(=O)N(C)C)ccc32)cc1Cl
O=C(CSc1nnc(-c2ccccc2Br)n1-c1ccccc1)c1ccc(F)cc1
COc1ccc(OC2CCN(S(=O)(=O)c3cccc(F)c3)CC2)cc1
COc1ccc(C2C(C(=O)Nc3ccccc3)=C(C)Nc3nc(-c4ccccc4)nn32)c(OC)c1 (configuration not stated)
Cc1cccc(C(=O)N2CCNC(=O)C2CC(=O)Nc2ccc(F)cc2)c1 (configuration not stated)
COc1ccc(C(=O)CSc2nc3cc(C(=O)NC4CCCC4)ccc3c(=O)n2CC2CCCO2)cc1 (configuration not stated)
CCOc1ccc(CN2C(=O)c3ccccc3Sc3ccc(C(=O)NCc4ccc5c(c4)OCO5)cc32)cc1
COc1ccc(S(=O)(=O)NCCc2sc(C)nc2C)cc1
CCn1c(CNC(=O)C23CC4CC(CC(C4)C2)C3)nnc1SCC(=O)Nc1ccc(C)cc1
COc1ccc(-n2c(-c3ccccc3F)nc3c(cnn3-c3ccc(C)cc3)c2=O)cc1
Cc1ccc(CCNC(=O)CN2C(=O)COc3ccc(S(=O)(=O)N4CCCC4)cc32)cc1
CCOc1ccc(NC(=O)c2ccc(CN3C(=O)C(C)=C(c4ccc(C)cc4)S3(=O)=O)cc2)cc1
Cc1ccc(C)c(NC(=O)CSc2nnc(CNC(=O)c3ccccc3)n2-c2ccccc2)c1
O=C(Nc1ccccc1Cl)c1ccc(F)c(S(=O)(=O)NCc2ccc(Cl)c(Cl)c2)c1
Cc1cc(C)c2c(=O)cc(C(=O)Nc3ccc(C)c(Cl)c3)oc2c1
COc1ccccc1-c1cc(C(=O)N2CCN(c3ccccc3)CC2)no1
COCCn1c(-c2ccccc2)c(C)n2c3c(=O)n(C)c(=O)n(C)c3nc12
CCC(=O)N1c2ccccc2CC1C(=O)NCCc1ccc(SC)cc1 (configuration not stated)
Cc1ccc(C)c(N2CCN(C(=O)Cn3cnc4sc(C)c(S(=O)(=O)N5CCN(c6ncccn6)CC5)c4c3=O)CC2)c1
O=C(COc1ccccc1)Nc1nnc2n1CCS2
CCOC(=O)C1CCN(S(=O)(=O)c2cc(-c3cc(C)no3)ccc2OC)CC1

Activity change, negative = inhibition, inactive:
Cc1cccc(C(=O)NC2(C(F)(F)F)N=C(c3ccccc3)N(Cc3ccccc3)C2=O)c1 (configuration not stated) -21.2%
CCc1ccccc1Nc1nn2c(=O)c3ccc(C(=O)NCCc4ccccc4)cc3nc2s1 8.96%
COCCCN1CCc2nc(SCC(=O)Nc3ccc(C)c(Cl)c3)[nH]c(=O)c2C1 1.09%
CCOc1ccc2c(c1)c(=O)c(S(=O)(=O)c1ccc(C)cc1)cn2CC(=O)Nc1ccc(C)cc1 3.82%
O=C(CSc1nc2ccccc2n1CC(=O)Nc1ccc(F)cc1F)Nc1ccc(F)cc1 -7.48%
Cc1ccc(-c2c(CN3CCN(c4cc(Cl)ccc4C)CC3)csc2C)cc1 1.53%
CC(=O)N1CCc2c(sc3c2c(=O)n(-c2ccccc2Cl)c(=O)n3C)C1 -15.8%
Cc1nc2sccn2c(=O)c1S(=O)(=O)Nc1ccc(N2CCN(C)CC2)cc1 1.98%
Cn1nnnc1SCCCNCc1cc(Br)ccc1OCc1ccccc1 -17.4%
CCOC(=O)c1c(C)[nH]c(C)c1S(=O)(=O)N1CCC(C(=O)NCc2ccc(F)cc2)CC1 142%
Cc1cccc(N2CCN(C(=O)c3sc4nc5n(c(=O)c4c3C)CCC5)CC2C)c1 (configuration not stated) -3.07%
CCOc1ccc(CCNC(=O)C(CC)n2nc(C)c3c(C)n(-c4ccccc4)nc3c2=O)cc1 (configuration not stated) 1.98%
COc1ccc(-c2nn3c(=O)cc(CN4CCN(C(=O)Nc5cc(C)ccc5C)CC4)nc3s2)cc1 0.205%
O=c1[nH]c(SCc2ccccc2)nc2c1CCCC2 -3.71%
COC(=O)c1ccc(OCC2c3cc(OC)c(OC)cc3CCN2C(=O)c2ccc(OC)cc2)cc1 (configuration not stated) 23.5%
O=C(NC1CCCC1)c1ccc(CSc2nc3cccnc3n2Cc2cccc(F)c2)cc1 0.42%
Cc1nc2ccn(Cc3cccnc3)c(=O)c2cc1C(=O)NCc1ccccc1 -4.08%
CCCCn1c(=O)c2oc3ccccc3c2n(CC(=O)Nc2cc(C)ccc2C)c1=O -0.896%
Cc1ccc(CNC(=O)Cc2c(C(=O)O)c(C)cn2C)cc1 -2.1%
CCc1ccc(OCC(=O)Nc2ccc(S(=O)(=O)Nc3onc(C)c3C)cc2)cc1 -23.3%
Cc1ccc2oc(=O)n(CCNC(=O)Nc3ccccc3C)c2c1 4.92%
COc1cc(OC)c(NC(=O)Cc2c(C(=O)O)c(C)cn2C)cc1Cl 3.99%
COc1ccc(NC(=O)C2=C(C)Nc3ncnn3C2c2sccc2C)cc1 (configuration not stated) -12.9%
Cc1cccc(NC(=O)Cn2c(=O)n(CCc3ccccc3)c(=O)c3ccccc32)c1 25.8%
COc1ccc(C)cc1NC(=O)C(NS(=O)(=O)c1cccs1)c1ccccc1 (configuration not stated) 1.57%
Cc1ccccc1NC(=O)Nc1csc2c1CCCC2 -1.82%
COc1cc(OC)c(NC(=O)c2sc3nc4n(c(=O)c3c2C)CCCC4)cc1Cl 13.2%
CCCOc1cccc(C(=O)Nc2cc(-c3nc4ccccc4[nH]3)ccc2C)c1 -13.3%
CCCc1cnc2c(c1SCc1cccc(C)c1)c(=O)n(C)c(=O)n2C 7.55%
CCOc1ccccc1NC(=O)CSc1nc2ccccc2nc1Cc1ccc(C)cc1 5.36%
Cc1ccc2c(Sc3ccccc3)c(C(=O)NCc3ccccc3F)[nH]c2c1 -11.3%
Cc1nc2c3cccnc3nn2c(C)c1CCC(=O)NCc1ccccc1Cl -9.5%
Cc1ccc(S(=O)Cc2ccc(C(=O)NCc3ccc(OC(C)C)cc3)o2)cc1 (configuration not stated) -3.01%
CC(=O)c1ccc(NC(=O)c2sc(-n3nc(C)c(CCC(C)C)c3C)nc2C)cc1 -9.37%
CCOC(=O)[C@H](CCc1ccccc1)N[C@H]1CCc2ccccc2N(CC(=O)O)C1=O -19.2%
CCCCC(=O)N1CC(=O)Nc2ccc(F)cc2C1c1ccc(F)cc1 (configuration not stated) 6.5%
CCOc1cc(Cn2c(-c3ccc(O)c(OCC)c3)nc3ccccc32)ccc1O -1.06%
Cc1cc(C)cc(NC(=O)c2nnn(Cc3cccc(Br)c3)c2N)c1 2.46%
O=C(CC1C(=O)OCCN1Cc1ccccc1)Nc1cccc(Cl)c1 (configuration not stated) 2.81%
COC1=C(OC)C(=O)C(CCCCCCCCCCO)=C(C)C1=O 0.33%
CC(=O)Nc1ccccc1-c1nc2ccccc2n(C(C)C(=O)Nc2cc(Cl)ccc2C)c1=O (configuration not stated) -2.87%
CCN(CC)S(=O)(=O)c1nnc(NC(=O)COc2ccc(C)cc2)s1 1.46%
CC(=O)Nc1ccc(NC(=O)CCc2c(C)nc3c(c(C)nn3-c3ccc(C)cc3)c2C)cc1 -10.1%
CCOC(=O)c1sc(N2C(=O)c3oc4cc(C)c(C)cc4c(=O)c3C2c2ccc(C)cc2)nc1C (configuration not stated) 1.75%
COc1ccc(CN2CCCN(CC(=O)Nc3cc(C)ccc3C)S2(=O)=O)cc1 -0.14%
Cn1c(=O)c2sccc2n2c(CCCC(=O)Nc3ccc(Cl)cc3)nnc12 5.86%
CCC(=O)Nc1ccccc1-c1nc2ccccc2n(Cc2cccc(Br)c2)c1=O -1.51%
CCc1cccc(C)c1NC(=O)c1cc(S(=O)(=O)N(C)Cc2ccccc2)ccc1F 2.55%
COc1ccc(-c2cc(OC(=O)c3ccccc3C)c3c(C)oc(C)c3c(=O)c2)cc1 -2.04%
Cc1ccc(-n2ncc3c(N4CCCCC4)ncnc32)cc1Cl 3.92%
CC(=O)N1CCCc2cc(S(=O)(=O)N(CCN(C)C)Cc3ccccc3)ccc21 -1.93%
CCc1ccc2oc(C(=O)NCC(c3ccc(Cl)cc3)N3CCOCC3)c(C)c2c1 (configuration not stated) -0.898%
CCOC(=O)c1c(C)oc2nc(C)nc(Nc3cc(C)cc(C)c3)c12 6.17%
Cc1csc2nc(COC(=O)c3ccc(F)cc3)cc(=O)n12 9.73%
O=C(CSc1nc2ccccc2n1Cc1ccc(F)cc1)N1CCN(c2ccc(F)cc2)CC1 -6.16%
CCc1ccc(-c2nc(CN3CCC(C(=O)NCCc4ccc(C)cc4)CC3)c(C)o2)cc1 9.09%
Cc1nnc(N2CCC(C(=O)NCCc3ccccc3)CC2)c2nn(-c3ccccc3)c(C)c12 -7.41%
O=C(Nc1ccc(OCc2cc(=O)n3ccsc3n2)cc1)c1ccc(F)cc1 -17.2%
COc1ccc(CNC(=O)CSCc2nc(-c3ccccc3F)oc2C)cc1 5.34%
Cc1ccc(C)c(NC(=O)Cn2cnc3c(oc4ccccc43)c2=O)c1 15%
CCc1ccc(C2=CC(c3cccc(C)c3)n3c(nc4ccccc43)N2)cc1 (configuration not stated) -6.91%
Cc1cccc(N(CC(=O)NCc2ccccc2)S(C)(=O)=O)c1C 1.9%
COc1ccc(NC(=O)C(c2ccccc2)N2Cc3ccccc3C2=O)cc1 (configuration not stated) -23.1%
C=CC(=O)Nc1cc(NC(=O)c2ccc(C)c(NC(=O)c3ccno3)c2)cc(C(F)(F)F)c1 -10.7%
Cc1ccccc1OCCn1cc(C(=O)C2CCCCC2)c2ccccc21 -0.59%
CCOC(=O)Cn1c(C2CC(=O)N(c3ccc(C)cc3)C2)nc2ccccc21 (configuration not stated) 3.5%
O=[N+]([O-])c1ccc(C(c2sc3nc(-c4ccco4)nn3c2O)N2CCN(Cc3ccccc3)CC2)cc1 (configuration not stated) 1.14%
O=C(Nc1ccc2c(c1)OCO2)c1cc(-c2cccc(Cl)c2)on1 1.38%
COc1ccc(C)cc1Nc1c2c(nc3ccccc13)CCC2 0.0845%
